{
  "source": "PubChem BioAssay AID1794842",
  "about": "(National Center for Advancing Translational Sciences (NCATS), 2023)",
  "note": "Fewer than 10 of roughly 2,800 compounds were called active. Calls come from the whole dose curve; as a rule, active = well fitted curve in the direction sought with a large enough effect; inconclusive = small, poorly fitted or top-dose-only effect, or another doubt; inactive = no such curve, though single readings can be large or run the other way. The list shows a part of the results.",
  "data": [
    {"target": "Metallo-beta-lactamase type 2 (Klebsiella pneumoniae) (UniProt C7C422)", "sequence (C7C422 whole entry, looked up)": "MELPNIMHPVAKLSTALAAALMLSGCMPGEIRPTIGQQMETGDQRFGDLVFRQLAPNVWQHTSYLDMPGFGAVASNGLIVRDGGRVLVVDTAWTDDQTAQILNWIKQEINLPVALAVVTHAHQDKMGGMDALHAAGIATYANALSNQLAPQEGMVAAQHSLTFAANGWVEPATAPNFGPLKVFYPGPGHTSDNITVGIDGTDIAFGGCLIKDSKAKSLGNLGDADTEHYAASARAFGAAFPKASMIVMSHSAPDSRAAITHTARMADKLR", "experiment": "qHTS to identify inhibitors of the New Delhi Metallo-beta-lactamase (NDM): Meropenem screen against the machine-based learning selections; note: % of control where 0% means no effect.", "conditions": "Purified NDM-1, meropenem hydrolysis, absorbance 300 nm; at 38.4 µM (top of the series) unless noted", "procedure,_shortened": "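NDM-1 (2 nM final) in 50 mM HEPES pH 7.0, 1 uM Zn2SO4, 0.01% Tween20 was preincubated with compounds for >30 min. Nitrocefin (16.7 uM final) was read at 485 nm after 15 min, and meropenem (50 uM final) at 300 nm after 30 min.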", "values": [
      {"smiles": "COCCNC(=O)c1ccc2c(c1)N(C)C(CC(=O)N1CCCCC1)CO2", "note": "(stereo not drawn)", "activity change, negative = inhibition": "inactive: -0.371%"},
      {"smiles": "O=C(NCc1c[nH]c2ncccc12)c1ccccn1", "activity change, negative = inhibition": "inactive: 2.58% [at 57.5 µM]"},
      {"smiles": "Cc1nn(-c2ccccc2Cl)c(=O)n1CC(=O)N(C)C(C)c1ccon1", "note": "(stereo not drawn)", "activity change, negative = inhibition": "inactive: -1.15%"},
      {"smiles": "Oc1cccc(CN(Cc2ccsc2)Cc2ccco2)c1", "activity change, negative = inhibition": "inactive: 0.491%"},
      {"smiles": "c1ccc2c(c1)cnn2CCCn1ccnc1-c1cc2n(n1)CCCNC2", "activity change, negative = inhibition": "inactive: 39.2%"},
      {"smiles": "COC(=O)c1cc2n(n1)CCCN(C(=O)c1cc(CC(C)C)no1)C2", "activity change, negative = inhibition": "inactive: -0.232%"},
      {"smiles": "O=C(O)c1cc(Br)cc(S(=O)(=O)NCC2CCCO2)c1", "note": "(stereo not drawn)", "activity change, negative = inhibition": "inactive: 12.5%"},
      {"smiles": "O=C1N[C@@H]2CCN(C(=O)c3ccc(-c4ccccc4)cc3)[C@@H]2C(=O)N1c1ccc(F)cc1", "activity change, negative = inhibition": "inactive: 0.84% [at 57.5 µM]"},
      {"smiles": "OC1(CN2CCCCC2)CCN(c2nc3ccccc3s2)C1", "note": "(stereo not drawn)", "activity change, negative = inhibition": "inactive: 3.8%"},
      {"smiles": "O=C1NCCC[C@@H]1NC(=O)[C@H]1CN(C(=O)c2cccc(F)c2)CCN1C(=O)c1cccs1", "activity change, negative = inhibition": "inactive: -0.908%"},
      {"smiles": "Cc1ccc(CN2CC[C@@H](CO)N(C)c3cccnc3C2)s1", "activity change, negative = inhibition": "inactive: -1.6% [at 57.5 µM]"},
      {"smiles": "CC(C)CCN1CCc2[nH]nc(C(=O)N(C)C)c2C1", "activity change, negative = inhibition": "inactive: -0.494%"},
      {"smiles": "COCC(=O)N1CCCc2nc(C)nc(-c3ccc(O)cc3)c2C1", "activity change, negative = inhibition": "inactive: 2.17% [at 57.5 µM]"},
      {"smiles": "COc1cccc(Nc2n[nH]c(C(O)c3cccc(C(F)(F)F)c3)n2)c1", "note": "(stereo not drawn)", "activity change, negative = inhibition": "inactive: -0.292% [at 57.5 µM]"},
      {"smiles": "C[S+](=O)([O-])CCn1ncc2cc(OCc3cccc(-c4cccc(O)c4)c3)ccc21", "activity change, negative = inhibition": "inactive: -1.67% [at 57.5 µM]"},
      {"smiles": "COC(=O)[C@H](CC1CCCCC1)NC(=O)[C@H]1CN(C(=O)c2cccc(F)c2)CCN1C(C)=O", "activity change, negative = inhibition": "inactive: -0.971%"},
      {"smiles": "CC(C)CC(=O)N1CCN(c2nnc3ccccn23)CC1", "activity change, negative = inhibition": "inactive: 6.45%"},
      {"smiles": "CCCN1CC2(CCN(C(=O)c3ccc(C)nc3)CC2)CC1C(=O)O", "note": "(stereo not drawn)", "activity change, negative = inhibition": "inactive: 40.3%"},
      {"smiles": "O=C(Cc1ccccn1)N1CCC(N2CC3CCCN3C2=O)CC1", "note": "(stereo not drawn)", "activity change, negative = inhibition": "inactive: 3.77% [at 57.5 µM]"},
      {"smiles": "Cc1cc(C)c(CNC(=O)c2nc(-c3cccnc3)cc3[nH]ccc23)c(=O)[nH]1", "activity change, negative = inhibition": "inactive: 3.82% [at 57.5 µM]"},
      {"smiles": "CC(C)c1noc(-c2cccn3c(CNC(=O)c4cccc5[nH]ccc45)nnc23)n1", "activity change, negative = inhibition": "inactive: 5.92%"},
      {"smiles": "COc1ccc(CNC(=O)C[C@@H]2CCNC[C@@H]2Cc2cc(COc3ccccc3)on2)cc1", "activity change, negative = inhibition": "inactive: -2.5%"},
      {"smiles": "COc1ccccc1CNC(=O)C[C@@H]1[C@H](O)CCC2[C@](C)(CO)[C@H](OC(=O)NC(C)C)CC[C@]21C", "note": "(stereo partly drawn)", "activity change, negative = inhibition": "inactive: -0.427%"},
      {"smiles": "NC(=O)CCNC(=O)C1=C[C@@H](NC(=O)c2cccs2)[C@@H](O)[C@H](O)C1", "activity change, negative = inhibition": "inactive: 7.02% [at 57.5 µM]"},
      {"smiles": "O=C(c1ccccc1-c1ncn[nH]1)N1CCn2nc(Cc3ccccc3)cc2C1", "activity change, negative = inhibition": "inactive: 0.0583%"},
      {"smiles": "O=S(=O)(NC[C@H]1O[C@@H](CO)[C@@H](O)[C@H]1N1CCOCC1)c1ccccc1", "activity change, negative = inhibition": "inactive: 41.4% [at 57.5 µM]"},
      {"smiles": "COc1ccc(-c2noc([C@@H]3C[C@@H](O)CN3Cc3ncc[nH]3)n2)cc1", "activity change, negative = inhibition": "inactive: -1.76% [at 57.5 µM]"},
      {"smiles": "OCc1cccc(-c2ccc3ncc(Nc4ccccc4F)n3n2)c1", "activity change, negative = inhibition": "inactive: 23.6% [at 57.5 µM]"},
      {"smiles": "Cc1nc(C(=O)N2CCC(c3nnc(CN4CCCC4)n3C)CC2)cs1", "activity change, negative = inhibition": "inactive: -3.72%"},
      {"smiles": "O=c1c2nc(-c3ccc(O)c(F)c3)ccc2ncn1Cc1ccccn1", "activity change, negative = inhibition": "inactive: 17.4% [at 57.5 µM]"},
      {"smiles": "CCc1nc(NCCc2cc(OC)cc(OC)c2)c2cnn(C)c2n1", "activity change, negative = inhibition": "inactive: 3.47%"},
      {"smiles": "O=C(C[C@@H]1O[C@H](CNC(=O)c2ccccc2)[C@@H](O)[C@H]1O)NC1CC1", "activity change, negative = inhibition": "inactive: 45% [at 57.5 µM]"},
      {"smiles": "F[C@@H]1CN(Cc2cccnc2)C[C@@H]1OCc1nc2ccc(C(F)(F)F)cc2[nH]1", "activity change, negative = inhibition": "inactive: -0.315% [at 57.5 µM]"},
      {"smiles": "c1cncc(Nc2cc3c(cn2)CN(Cc2ccc4[nH]ccc4c2)CCN3)c1", "activity change, negative = inhibition": "inactive: 1.18% [at 57.5 µM]"},
      {"smiles": "O=C(NCCc1ccccc1)C1CC(=O)N(c2n[nH]c3cccc(F)c23)C1", "note": "(stereo not drawn)", "activity change, negative = inhibition": "inactive: -0.342%"},
      {"smiles": "COCCNC(=O)C[C@@H]1C[C@H]2O[C@H](CNC3CCCCC3)[C@@H](O)[C@H]2O1", "activity change, negative = inhibition": "inactive: 0.285% [at 57.5 µM]"},
      {"smiles": "Cc1ccccc1C(=O)N1CCCN(c2cc(-c3ccc(Cl)cc3)[nH]n2)CC1", "activity change, negative = inhibition": "inactive: 0.174%"},
      {"smiles": "CC(C)c1nnc(C2CN(C(=O)c3ccc(F)c(F)c3)CC23CCOCC3)o1", "note": "(stereo not drawn)", "activity change, negative = inhibition": "inactive: -0.968%"}
    ]}
  ]
}
